Each structure is given as a SMILES string. Values joined by “and” are separate entries in the source; they are usually repeats but may differ in a detail not shown here. Equal entries are not always repeated.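 Tested at 5 concentrations; 48 h exposure; 96-well plates; endpoints linearly interpolated, else capped at highest concentration. The concentration for 50% growth inhibition is given as GI50. Definition used: TGI = concentration required for complete inhibition of growth.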

The assay has as its system NCI-H322M lung. Kind of assay: growth of human tumour cells (NCI), 48 h.
For the compound `C/C(=N\n1c(Cc2ccccc2)n[nH]c1=O)c1ccc([N+](=O)[O-])cc1`, the TGI is greater than 100 µM.
On the same count and under the same terms, the value for `O=C1CC(Cl)c2c(Cl)sc(Cl)c21` (configuration not stated) was 28.9 µM; that for `CN(C)/C=N/S(=O)(=O)c1nn2c(C=O)c(-c3cc4ccccc4oc3=O)nc2s1` was greater than 93.5 µM.
On to `CCCCC#Cc1cccc(=O)o1`, for which the GI50 was greater than 100 µM and the TGI is greater than 100 µM.
Consider `C[C@@]12CCC[C@@](C)(C(=O)O)C1CC[C@@]13CC(=O)[C@@](CO)(CCC12)C3` (some centres not stated), for which the GI50 is greater than 100 µM and the TGI was greater than 100 µM.
`COc1cccc(/C=N/n2c(Cc3ccc(Cl)cc3)n[nH]c2=O)c1` gave a TGI greater than 100 µM.
For the compound `NCC(=O)CCC(=O)O`, the GI50 is greater than 100 µM and the TGI was greater than 100 µM.
`C=CCNc1cccc2c1C(=O)c1ccccc1C2(O)CC=C` (configuration not stated): the GI50 was 33.3 µM and the TGI stood at 71.9 µM.
For `CC1=N/C(=C\c2cccc3ccccc23)C(=O)O1`, the TGI is greater than 100 µM.
As to `Oc1ccc(SCc2ccc(NCc3ccccc3)cc2)cc1`, the TGI was 61.7 µM.
In the case of `Oc1ccc(-c2nc3ccc4[nH]ncc4c3c3c2CCCC3)c2cccnc12`, the GI50 is 0.419 µM and the TGI came to 11.8 µM.
The corresponding values for `C=C1C(=O)O[C@H]2[C@H]1CC/C(COC(=O)C(=O)c1cn(C)c3ccc(OC)cc13)=C\CC[C@@]1(C)O[C@@H]21` are 7.39 µM and 13.1 µM.
In turn, `O=C(CC(=O)Nc1ccccc1Cl)NNC(Sc1ccccc1)c1cc(N=Nc2ccc(Br)cc2)ccc1O` (configuration not stated) had a TGI of 3.36 µM.
With `COc1ccc(-c2nn(-c3cccc(NC(=O)Nc4cccc(C(F)(F)F)c4)c3)cc2-c2ccncc2)cc1Cl`, the GI50 was 3.84 µM and the TGI is greater than 100 µM.
Regarding `Cc1[nH]nc(C(=O)Nc2n[nH]c3ccccc23)c1[N+](=O)[O-]`, the GI50 was greater than 92 µM and the TGI was greater than 100 µM.
`COC(=O)C(N)CCCC(N)C(=O)NC(C)C(=O)NC(CCC(=O)NCCCNc1ccc([N+](=O)[O-])c2[nH]c3ccccc3c(=O)c12)C(N)=O` (configuration not stated): the TGI was 20.4 µM.
In turn, `CC(CN(C)C)C(=O)/C=C/c1ccc(Cl)c(Cl)c1` (configuration not stated) displayed a TGI of 10.8 µM.
Turning to `COc1cnnc2c(C)c(-c3ccccc3)nn12`, the TGI was greater than 100 µM.
`C=CCC(C)(C(=O)NCCC)C(=O)c1ccccc1O` (configuration not stated) gave a TGI greater than 100 µM.
Same read-out and setting: for `CCOC(=O)/C=C1/Nc2cc(F)c(F)cc2NC1=O` the value was greater than 100 µM; for `Cc1cccc(N2C(=O)C(=O)C(c3nc4ccccc4s3)C(=O)C2=O)c1C`, greater than 100 µM.
Turning to `COc1ccc2sc3c(NCCCNCCO)nc4ccccc4c3c(=O)c2c1`, the GI50 was 1.65 µM and the TGI came to 3.19 µM.
On to `O=C(O/N=C1/CCCC/C1=C\c1ccccc1)c1ccc(Cl)cc1`, for which the TGI is greater than 100 µM.
With `c1ccc2nn(C3CCCCO3)nc2c1` (configuration not stated), the TGI is greater than 100 µM.
Still for that read-out and setting: for `O=Cc1cc(O)c(O)c(/C=N/n2c3ccccc3c3ccccc32)c1` the value was 40.2 µM.
Take `Clc1ccc(-c2cn(-c3ccccc3)c(-c3ccccc3)n2)c(Cl)c1`: the GI50 is 1.78 µM and the TGI came to 14.9 µM.
Consider `CC1=N/C(=C\c2ccc([N+](=O)[O-])cc2)C(=O)O1`, for which the TGI is greater than 100 µM.
The same measure, in the same setting: for `N#CC(=S)Nc1ccc(F)cc1` the value was greater than 100 µM; for `C/C(=N\NC(=O)N/N=C(\C)c1ccccn1)c1ccccn1`, greater than 100 µM; for `COC1=C(OC)C(=O)C(Cc2c(Cl)nc3n2CCS3)=C(C)C1=O`, 30.6 µM.
Regarding `CC12CCC(C1)C(C)(C)C2OC(=O)c1ccccc1C(=O)O` (configuration not stated), the TGI was greater than 100 µM.
Still for that read-out and setting: for `S=C1CSc2c(cnc3ccccc23)N1` the value was greater than 100 µM; for `CC(C)(CCC(C)(C)c1ccccc1)c1ccccc1`, 45 µM.
With `CC1(C)CC[C@]2(C(=O)O)CC[C@]3(C)[C@H](CC[C@@H]4[C@@]5(C)CCC(=O)C(C)(C)[C@@H]5CC[C@]43C)[C@H]2[C@H]1OC(=O)C(F)(F)F`, the GI50 was 17.8 µM and the TGI came out at 39.4 µM.
Regarding `COc1cc(C(CC(OC)OC)=C(C#N)C#N)cc(OC)c1OC`, the TGI was 35.7 µM.
In the case of `CC(=O)OC1=C2C(CC3C4CC=C5CC(OC(C)=O)CCC5(C)C4CCC23C)C2C(=O)N(Cc3ccccc3)C(=O)C2C1` (configuration not stated), the GI50 was 25.9 µM and the TGI was greater than 100 µM.
Compound `CCCC1C(C#N)(C#N)C(C#N)=C(N)C1(C)C(C)=O` (configuration not stated) displayed a TGI greater than 100 µM.
For `COc1cccc(C2C(C#N)=C(N)Oc3cc(OC)ccc32)c1` (configuration not stated), the GI50 was 0.0645 µM and the TGI was greater than 100 µM.
For the compound `COc1cc2c3c(n(CCCNCCN4CCOCC4)c(=O)c2cc1OC)-c1cc2c(cc1C3=O)OCO2`, the GI50 is 5.3 µM and 5.02 µM; the TGI was 12.8 µM and 15.1 µM.
`CN1c2ccccc2C(C)(C)C12CC(c1ccc(Cl)c(S(=O)(=O)N3CCCC3)c1)=NO2` (configuration not stated): the GI50 is greater than 100 µM and the TGI is greater than 100 µM.
Consider `CC(C)[C@@H](CS(=O)(=O)C(C)C)N1C(=O)[C@@](C)(CC(=O)O)C[C@H](c2cccc(Cl)c2)[C@H]1c1ccc(Cl)cc1`, for which the GI50 is 23.6 µM and the TGI is greater than 100 µM.
Take `N#CI1OC(C(F)(F)F)(C(F)(F)F)c2ccccc21`: the TGI is greater than 100 µM.
Compound `CCc1cccc(C(C)CC)c1NC(=O)CC1C(=O)Nc2ccccc2S1=O` (configuration not stated) registered a TGI greater than 100 µM.
On the same count and under the same terms, the value for `CC1=CC(=O)/C(=C/N2CCNC2=S)C(=O)O1` was greater than 100 µM.
`COc1cc(/C=C/C(=O)c2cc(OC)c(OC)c(OC)c2)cc(OC)c1OC`: the GI50 is 2.94 µM and the TGI was 12.7 µM.
In turn, `COC(=O)C(=O)C(C#N)c1ccc(Cl)c(Cl)c1` (configuration not stated) registered a TGI greater than 100 µM.
As for `O=C(c1ccccc1)n1[nH]c(=O)n(-c2ccc(Cl)cc2)c1=O`, the TGI was greater than 100 µM.
With `Cc1[nH]c(=O)[nH]c(=O)c1C(=O)N(CCO)Cc1ccccc1`, the TGI is greater than 100 µM.
With `COc1ccc(-c2[nH]ncc2-c2cc(OC)c(OC)c(OC)c2)cc1`, the GI50 is less than 0.01 µM and the TGI is greater than 44.1 µM.
In turn, `O=C1CC(c2c[nH]c3ccccc23)C(=O)N1c1ccccc1` (configuration not stated) registered a TGI greater than 100 µM.
`C/C(=C/c1c(C)[nH]c(=O)[nH]c1=O)C(=O)O` returned a TGI greater than 1380 µM.
On the same count and under the same terms, for `O=C1C=C(NCCc2cc(Br)c(O)c(Br)c2)C(=O)c2[nH]cnc21` the value was greater than 100 µM.
Regarding `O=C1c2ccccc2C2(O)Oc3cccc(O)c3C12O` (configuration not stated), the TGI is greater than 100 µM.
Still for that read-out and setting: the value for `COC(=O)c1ccccc1N=Cc1ccc(N(CCC#N)S(=O)(=O)c2ccccc2)cc1` was greater than 100 µM; that for `Cc1csc2n(C)c(=O)c3ccccc3[n+]12` was greater than 100 µM.
Regarding `O=C1C=C(Nc2nc(C(=O)O)cc(=O)[nH]2)c2ccccc2C1=O`, the TGI was greater than 100 µM.
Regarding `c1ccc2c(c1)ccc1c3ccccc3ccc21`, the GI50 is greater than 50 µM and the TGI was greater than 50 µM.
Take `CC(C)(CN1CCCCC1)C(=O)/C=C/c1c(Cl)cccc1Cl`: the TGI is 5.03 µM.
In turn, `CCOC(=O)/C=C(/C(=O)OCC)n1ccc(=O)[nH]c1=O` had a TGI of 31.4 µM.
As to `O=C1NC(=S)NC(=O)C1=Cc1ccc2ccccc2n1`, the TGI was greater than 100 µM.
As for `O=[N+]([O-])c1ccc(-[n+]2ccc3ccccc3c2)c([N+](=O)[O-])c1`, the TGI worked out at 25.7 µM.
As for `Cc1ccc(N(C(=O)CC(=O)N2N=C(c3ccccc3)C(N=Nc3ccc([N+](=O)[O-])cc3)C2=O)C(=O)c2ccc(Cl)cc2)cc1` (configuration not stated), the TGI was greater than 59 µM.
On the same count and under the same terms, for `Cc1nn(C)c(=S)n(C)c1=O` the value was greater than 100 µM; for `Cc1nc2sccn2c1C(=O)OCCOCCOCCOCCOC(=O)c1c(C)nc2sccn12`, greater than 100 µM.
`CCc1cc2c(oc3c4ccccc4ccc23)c(=O)[nH]1` displayed a TGI greater than 10 µM.
Consider `CC1(CO)C(=O)OC12CCCCC2` (configuration not stated), for which the TGI is greater than 100 µM.
Regarding `COC(=O)[C@H](Cc1ccccc1)NC(=O)[C@@H](OC)[C@@H]1Cc2cc3cc(OC4CC(OC5CC(O)C(O)C(C)O5)C(O)C(C)O4)c(C)c(O)c3c(O)c2C(=O)[C@H]1OC1CC(OC2CC(OC3CC(C)(O)C(O)C(C)O3)C(O)C(C)O2)C(O)C(C)O1` (some centres not stated), the GI50 is 0.0149 µM and the TGI amounted to 0.119 µM.
On to `COc1cc2c3c(n(C)c(=O)c2cc1OC)-c1cc2c(cc1/C3=C\[C@@H](N)CCCCN)OCO2`, for which the GI50 is 0.703 µM and the TGI was determined as 58.8 µM.
Take `C1=C[C@]2(CCC13OCCO3)COc1ccccc12`: the TGI was greater than 100 µM.
Consider `COc1cc(/C=C2\CCc3ccccc3C2=O)cc(OC)c1OC`, for which the TGI turned out to be 34.8 µM.
As to `COc1ccc(C(=O)N/N=C/c2ccc(O)cc2O)cc1Nc1ccnc(C(F)(F)F)c1`, the GI50 is 0.763 µM and the TGI worked out at 34.3 µM.
`O=C1/C(=C2\SCC(=O)N2c2ccccc2)SC(=S)N1c1ccccc1`: the TGI was greater than 100 µM.
Still for that read-out and setting: for `O=C(CCC(=O)OCC1OC(O)(CC2OC(CO)C(O)C(O)C2O)C(O)C1O)OCc1ccccc1` (configuration not stated) the value was greater than 100 µM.
Consider `Oc1ccccc1C=Nc1ccccc1N=Cc1ccccc1O`, for which the TGI was greater than 100 µM.
Take `O=C(NNCc1ccccc1O)c1ccccc1O`: the TGI is greater than 100 µM.

These data come from PubChem BioAssay (NCI).
